The values below come from PMC6919601, “Identification of Plasmodium dipeptidyl aminopeptidase allosteric inhibitors by high throughput screening” (PLoS ONE, 2019).

The campaign covered roughly 110,000 compounds. About 230 (0.21%) showed an effect of 50% or more. The list shows a part of the results.
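Further: 30 min substrate incubation versus DMSO and 10 µM JCP410 controls.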

The test deals with DPAP1 (Plasmodium falciparum, UniProt Q8IIJ9). The test is described as follows: primary screen, percent inhibition; read by cleavage of a fluorogenic dipeptide substrate; higher = more effect of the substance. Details: species or system P. falciparum D10 trophozoite lysates; single well.
DPAP1, sequence (Q8IIJ9 whole entry, looked up): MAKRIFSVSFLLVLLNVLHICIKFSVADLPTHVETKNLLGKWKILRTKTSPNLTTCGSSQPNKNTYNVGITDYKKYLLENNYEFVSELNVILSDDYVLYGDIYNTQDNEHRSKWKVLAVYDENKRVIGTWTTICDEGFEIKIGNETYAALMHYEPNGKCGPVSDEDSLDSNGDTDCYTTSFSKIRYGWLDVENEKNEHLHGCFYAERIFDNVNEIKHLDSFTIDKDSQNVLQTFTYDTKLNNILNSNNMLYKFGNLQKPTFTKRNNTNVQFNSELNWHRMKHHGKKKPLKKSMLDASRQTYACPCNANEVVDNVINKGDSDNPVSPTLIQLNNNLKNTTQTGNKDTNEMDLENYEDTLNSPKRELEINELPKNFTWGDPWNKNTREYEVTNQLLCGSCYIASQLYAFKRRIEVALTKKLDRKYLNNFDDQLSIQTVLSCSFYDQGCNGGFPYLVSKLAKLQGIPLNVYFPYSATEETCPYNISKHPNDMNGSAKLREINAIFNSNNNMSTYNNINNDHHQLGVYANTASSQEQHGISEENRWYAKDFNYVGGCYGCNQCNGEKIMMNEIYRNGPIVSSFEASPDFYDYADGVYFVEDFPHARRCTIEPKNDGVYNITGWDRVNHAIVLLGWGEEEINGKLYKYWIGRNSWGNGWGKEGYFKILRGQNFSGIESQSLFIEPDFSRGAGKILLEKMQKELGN
As for `COc1ccc(C(=O)Nc2ccc(S(=O)(=O)Nc3nc(C)cc(C)n3)cc2)cc1OC`, the “% Inhibition @ 10 uM” value was determined as 3.66%.

On to `COc1cccc(CNc2nc3ccccc3n3c(C)nnc23)c1`, for which the “% Inhibition @ 10 uM” value was 7.23%.

With `O=C(O)CCCC(=O)Nc1ccc(I)cc1`, the “% Inhibition @ 10 uM” value is given as -1.86%.

With `COc1ccc(C(=O)ON=C2CCN(C)CC2)cc1`, the “% Inhibition @ 10 uM” value is -1.42%.

As to `CC(C)Cn1c2c(c(=O)[nH]c1=O)C(NC(=O)c1ccccc1)(C(F)(F)F)C(=O)N2` (stereo not shown), the “% Inhibition @ 10 uM” value was -1.33%.

As for `Clc1ccc2[nH]c3c(c2c1)CCc1c[nH]nc1-3`, the “% Inhibition @ 10 uM” value was -5.62%.

For the molecule `CC(C)C[C@H](NC(=O)OCc1ccccc1)C(=O)N[C@H](C#N)CCCCNC(=O)OCc1ccccc1`, the “% Inhibition @ 10 uM” value is 1.71%.

As to `Cc1ccc(S(=O)(=O)N(CC(=O)N2CCCC2)c2cc(Cl)ccc2C)cc1`, the “% Inhibition @ 10 uM” value is -2.75%.

Turning to `CCC(C)NC(=O)c1cc2n(n1)C(C(F)(F)F)CC(c1ccc(F)cc1)N2` (stereo not shown), the “% Inhibition @ 10 uM” value was 0.0265%.

Turning to `CC1CCC2(CC1)NC(=O)c1ccccc1O2` (stereo not shown), the “% Inhibition @ 10 uM” value is 4.78%.

On to `OCC#CCSc1nnc(-c2ccccc2Br)o1`, for which the “% Inhibition @ 10 uM” value came out at 4.96%.

For the molecule `Cc1ccc(-n2ncc(C(=O)NC(C)(C)C)c2C2CCN(C(=O)OC(C)(C)C)CC2)cc1`, the “% Inhibition @ 10 uM” value is reported as 5.57%.

For the molecule `Cn1c(C(=O)O)c(CNCc2ccc3c(c2)OCO3)c2ccccc21`, the “% Inhibition @ 10 uM” value is 5.09%.

Regarding `CCCn1cnc2cc(NCc3ccncc3)ccc21`, the “% Inhibition @ 10 uM” value was -2.67%.

With `O=C(CC(NS(=O)(=O)c1ccc(Br)cc1)c1ccco1)NC1CC1` (stereo not shown), the “% Inhibition @ 10 uM” value is -2.14%.

Regarding `CC1CC(=O)C2=C(C1)OC(N)=C(C#N)C2c1ccccc1Cl` (stereo not shown), the “% Inhibition @ 10 uM” value is given as 3.1%.

On to `COc1ccc(N(CC(=O)N2CCOCC2)S(=O)(=O)c2ccc(C)cc2)cc1Cl`, for which the “% Inhibition @ 10 uM” value is recorded as -6.36%.

Regarding `CC1CCCN(C(=O)c2ccc(Cl)c([N+](=O)[O-])c2)C1` (stereo not shown), the “% Inhibition @ 10 uM” value amounted to 5.09%.

Consider `CCCSc1ncc(Cl)c(C(=O)Nc2nnc(CCC)s2)n1`, for which the “% Inhibition @ 10 uM” value amounted to 1.25%.

For the molecule `O=C(Cc1ccccc1)NCc1cccc(CNC(=O)Cc2ccccc2)c1`, the “% Inhibition @ 10 uM” value is -7.78%.

For the molecule `CC(C)(C)c1cc(CN2CC=C(c3ccc(F)cc3)CC2)cc(C(C)(C)C)c1O`, the “% Inhibition @ 10 uM” value was -3.15%.

Turning to `CCC(=O)NC(c1ccccc1)c1ccc2cccnc2c1O` (stereo not shown), the “% Inhibition @ 10 uM” value came out at 7.73%.

Consider `Cc1c(C=C2C(=O)NC(=O)NC2=O)c2ccccc2n1Cc1ccc(Cl)cc1Cl`, for which the “% Inhibition @ 10 uM” value is 5.37%.

`CC(C)(C)NC(=O)CCc1nc(-c2ccc(Cl)cc2)no1`: the “% Inhibition @ 10 uM” value is -1.35%.

`O=C(COc1ccc(Cl)cc1)NC1CN2CCC1CC2` (stereo not shown): the “% Inhibition @ 10 uM” value turned out to be 2.14%.

On to `CCc1ccc(NC(=O)CN(c2ccc(F)cc2)S(=O)(=O)c2ccc3c(c2)OCCO3)cc1`, for which the “% Inhibition @ 10 uM” value amounted to 7.42%.

Consider `Cc1nc2sccn2c(=O)c1NC(=O)c1cccc(F)c1`, for which the “% Inhibition @ 10 uM” value is 13.7%.

As to `Cc1ccc(Cn2c(Br)nc3c2c(=O)n(C)c(=O)n3C)cc1`, the “% Inhibition @ 10 uM” value is given as 5.51%.

Take `CCCCCc1nn2cc(-c3ccc(C)cc3C)nc2s1`: the “% Inhibition @ 10 uM” value was -6.43%.

For the molecule `Cn1c(=O)c2ncn(CC(=O)Nc3ccc(O)cc3)c2n(C)c1=O`, the “% Inhibition @ 10 uM” value amounted to 0.755%.

In the case of `CC[C@H](NC(=O)[C@H](C)NC(=O)c1cc(-c2ccccc2OC)cc(-c2ccccc2OC)c1)C(=O)c1nc2ccccc2o1`, the “% Inhibition @ 10 uM” value is -6.56%.

Take `COc1cc(C(=O)Nc2nnc(CC(=O)NCc3ccccc3)s2)cc(OC)c1OC`: the “% Inhibition @ 10 uM” value is 19.6%.

For `Cc1cc2ccccc2n1CCNC(=O)c1cccc2ccccc12`, the “% Inhibition @ 10 uM” value turned out to be 5.32%.

Take `Cn1c(=O)c2c(nc(NCC3CCCO3)n2C)n(C)c1=O` (stereo not shown): the “% Inhibition @ 10 uM” value came out at 1.72%.

Regarding `COCCCNC(=O)CSc1nc2nc(C)c(Cc3ccccc3C)c(C)n2n1`, the “% Inhibition @ 10 uM” value is 3.51%.

Take `COc1ccc(/C=c2\[nH]c(=O)/c(=C\c3ccc(OC)cc3OC)[nH]c2=O)c(OC)c1`: the “% Inhibition @ 10 uM” value is listed as -2.87%.

Turning to `CCCCC12CN3CC(C)(CN(C1)C3c1ccc(O)cc1)C2=O` (stereo not shown), the “% Inhibition @ 10 uM” value is on record as 3.27%.

On to `CCCCc1c(C(=O)O)cccc1C(=O)O`, for which the “% Inhibition @ 10 uM” value is reported as -0.415%.

As for `CCOc1ccc(CCNC(=O)c2cc3c(Cl)ccc4c3n2CCO4)cc1`, the “% Inhibition @ 10 uM” value is given as 2.32%.

On to `CCc1ccc(-c2cn3c(n2)sc2cc(OC)ccc23)cc1`, for which the “% Inhibition @ 10 uM” value is on record as -4.8%.

For the molecule `CCC(C)c1ccc(S(=O)(=O)CCc2ccc(C)nc2)cc1` (stereo not shown), the “% Inhibition @ 10 uM” value came out at 3.42%.

Take `O=C(/C=C/c1ccc(F)cc1)NC(=S)N1CCCCCC1`: the “% Inhibition @ 10 uM” value is recorded as 1.7%.

Consider `CN(c1cccc(NS(=O)(=O)c2ccc(Cl)cc2)c1)S(C)(=O)=O`, for which the “% Inhibition @ 10 uM” value is reported as -6.65%.

Consider `COc1ccccc1C(=O)Nc1ccc(N2CCOCC2)cc1`, for which the “% Inhibition @ 10 uM” value is -6.36%.

On to `CC(C)N1C(=O)S/C(=C/c2cccc(Cl)c2)C1=O`, for which the “% Inhibition @ 10 uM” value was 1.86%.

On to `COc1ccc(NC(=O)c2sc3nc4c(cc3c2N)CCC4)cc1`, for which the “% Inhibition @ 10 uM” value is -7.14%.

For the molecule `Cc1nnc(N2CCC(C(=O)N3CCC4(CC3)OCCO4)CC2)c2nn(-c3ccccc3)c(C)c12`, the “% Inhibition @ 10 uM” value came to 6.47%.

As for `COc1ccc(-c2cs/c(=N\c3ccc(Cl)cc3)n2CCCO)cc1F`, the “% Inhibition @ 10 uM” value is on record as -4.43%.

On to `COc1ccccc1/C=C/c1nc(C#N)c(N2CC(C)CC(C)C2)o1` (stereo not shown), for which the “% Inhibition @ 10 uM” value is on record as -0.808%.

For the molecule `COc1cccc(-c2nn(C)c3sc(C(=O)N4CCN(c5ccccn5)CC4)cc23)c1`, the “% Inhibition @ 10 uM” value amounted to 4.51%.

In the case of `Cc1c(CC(=O)O)c2c(n1-c1ccccc1)CC(C)(C)CC2=O`, the “% Inhibition @ 10 uM” value came to 4.57%.

For the molecule `CCCOc1ccc(C2CC(=O)N3C(=C2C#N)SCC3(O)c2cccc(OC)c2)cc1OC` (stereo not shown), the “% Inhibition @ 10 uM” value was 1.64%.

`N#CC1=C(N)Oc2cc(N)ccc2C1c1ccc(Cl)cc1` (stereo not shown): the “% Inhibition @ 10 uM” value is reported as 1.41%.

On to `O=C(Nc1cc(Br)ccc1O)c1cccc2ccccc12`, for which the “% Inhibition @ 10 uM” value is reported as -1.07%.

Regarding `CN(C)CCN(C)Cc1ccccc1Cl`, the “% Inhibition @ 10 uM” value came to 3.53%.

In the case of `COc1ccccc1NC(=O)c1cc2ccccc2oc1=O`, the “% Inhibition @ 10 uM” value is listed as -0.268%.

As for `CCN(CC)C(=O)Cn1c(S(=O)(=O)Cc2ccccc2)nc2ccccc21`, the “% Inhibition @ 10 uM” value was -3.53%.

On to `CC1=CC2=NC(=O)/C(=C\c3cccn3CCOc3ccc(C(C)C)cc3)C(=N)N2O1`, for which the “% Inhibition @ 10 uM” value was 2%.

Regarding `CCOC(=O)c1c(C)c(-c2ccccc2)n(CC(=O)N2CCOCC2)c1C`, the “% Inhibition @ 10 uM” value was determined as 0.0579%.

On to `COc1cccc(Cn2c(=O)n(Cc3ccco3)c(=O)c3sc4ccccc4c32)c1`, for which the “% Inhibition @ 10 uM” value is 2.97%.

In the case of `O=C1N=C(N2CCOCC2)S/C1=C\c1ccc(C(=O)O)cc1`, the “% Inhibition @ 10 uM” value is -7.59%.

With `O=C(O)c1ccccc1NC1=NS(=O)(=O)c2ccccc21`, the “% Inhibition @ 10 uM” value is given as -8.37%.

Consider `Fc1cccc(Cl)c1CNCc1cccnc1`, for which the “% Inhibition @ 10 uM” value is given as -0.968%.

As to `Cc1ccc(-c2nnc(SCC(=O)NC3CCCCC3)o2)cc1`, the “% Inhibition @ 10 uM” value was -1.84%.
